In publication PMC4336329 (PLoS ONE, 2015):
Hit rate of the full screen: of about 310,000 compounds, about 2,200 (0.71%) showed an effect of 50% or more. The effect is printed as a negative number. This is one part of the list.

target: human ether-à-go-go-related gene (hERG) potassium channel (human, UniProt Q12809); assay: primary screen, population patch clamp on CHO cells stably expressing hERG
Sequence (Q12809 whole entry, looked up): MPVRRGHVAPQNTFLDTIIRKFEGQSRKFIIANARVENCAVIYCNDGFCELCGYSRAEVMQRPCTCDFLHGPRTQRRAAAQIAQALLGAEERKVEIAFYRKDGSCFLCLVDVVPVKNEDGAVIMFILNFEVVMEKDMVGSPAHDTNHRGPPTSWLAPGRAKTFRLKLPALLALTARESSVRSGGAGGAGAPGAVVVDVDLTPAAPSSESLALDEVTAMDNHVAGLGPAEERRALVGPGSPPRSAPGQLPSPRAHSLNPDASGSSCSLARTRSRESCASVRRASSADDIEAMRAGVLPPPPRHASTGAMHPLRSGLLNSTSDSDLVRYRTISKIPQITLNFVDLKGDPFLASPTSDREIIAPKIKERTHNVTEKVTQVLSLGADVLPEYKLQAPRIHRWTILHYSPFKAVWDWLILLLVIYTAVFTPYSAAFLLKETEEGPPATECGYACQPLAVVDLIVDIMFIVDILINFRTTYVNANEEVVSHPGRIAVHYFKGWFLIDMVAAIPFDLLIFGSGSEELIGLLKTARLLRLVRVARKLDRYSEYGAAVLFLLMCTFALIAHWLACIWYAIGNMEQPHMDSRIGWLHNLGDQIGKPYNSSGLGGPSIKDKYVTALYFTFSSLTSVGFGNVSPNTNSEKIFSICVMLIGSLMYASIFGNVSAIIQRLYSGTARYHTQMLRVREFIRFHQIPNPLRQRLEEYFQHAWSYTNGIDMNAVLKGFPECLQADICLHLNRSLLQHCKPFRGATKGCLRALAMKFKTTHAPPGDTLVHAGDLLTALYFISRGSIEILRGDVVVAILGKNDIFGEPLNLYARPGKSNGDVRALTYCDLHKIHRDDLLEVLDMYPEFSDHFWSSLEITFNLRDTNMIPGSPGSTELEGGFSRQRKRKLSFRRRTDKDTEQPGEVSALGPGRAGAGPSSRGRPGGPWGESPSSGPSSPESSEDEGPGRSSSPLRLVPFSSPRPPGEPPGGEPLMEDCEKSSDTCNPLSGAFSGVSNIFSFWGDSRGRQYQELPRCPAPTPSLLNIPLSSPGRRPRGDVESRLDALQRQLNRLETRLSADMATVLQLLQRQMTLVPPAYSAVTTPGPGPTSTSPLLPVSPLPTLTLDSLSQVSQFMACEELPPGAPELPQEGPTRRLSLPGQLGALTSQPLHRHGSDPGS

| SMILES | hERG current change (%, negative = inhibition) at 1uM [%] |
| --- | --- |
| Cc1ccccc1-n1nc(C)c2cc(C(=O)NCc3cccnc3)sc21 | -1.71 |
| Cc1ncc(CO)c2c1Oc1nc(-c3ccccc3F)nc(SCC(=O)N(C)c3ccccc3)c1C2 | 11.4 |
| Cc1cccc(N2CCN(C(=O)CCCn3c(=O)[nH]c4ccsc4c3=O)CC2C)c1 (centres unmarked) | 13.8 |
| COc1cc(/C=C/C(=O)OCC(=O)NC(=O)NC2CCCCC2C)ccc1OC(F)F (centres unmarked) | 3.09 |
| COc1ccc(/C=C/C(=O)OCC(=O)Nc2cccc(Oc3ccccc3)c2)c(OC)c1 | 4.6 |
| CC(=O)c1ccc(NC(=O)CN2CCCC2)cc1 | 13.9 |
| CCOC(=O)Cc1cnc(NC(=O)CSc2nc(C(C)C)cc(=O)[nH]2)s1 | 3.82 |
| O=C(CN1C(=O)C2CCCCC2C1=O)Nc1cccc([N+](=O)[O-])c1 (centres unmarked) | 5.59 |
| N#Cc1cc(C(=O)c2ccccc2OCC(=O)Nc2ccccc2Cl)cn(C2CCCCC2)c1=O | 2.7 |
| CC(C)CN1CCNC(=O)C1CC(=O)NCc1cnn(-c2cccc(F)c2)c1 (centres unmarked) | 8.03 |
| CC(=O)N1CCN(C(=S)NC(=O)c2c(-c3ccccc3Cl)noc2C)CC1 | 14.3 |
| Cn1ncc(Cl)c(Oc2ccc(Cl)cc2)c1=O | -2.07 |
| Cc1noc(C)c1NC(=O)NC(c1ccccc1)c1ccccc1 | 7.9 |
| CC(C)(C)c1ccc(CN2C(=O)CN=C(c3ccccc3)c3ccccc32)cc1 | -2.62 |
| O=C(Cn1c(N2CCN(c3ccccc3)CC2)nc2ccccc21)c1ccccc1 | -15.2 |
| Cc1cccc(NC(=O)CCN2C(=O)c3ccccc3C2=O)n1 | 12.6 |
| CCOc1c(C=C(C#N)C#N)c2ccccc2n1CC | 15.2 |
| COc1ccccc1NC(=O)CSc1nc2sc(C)c(C)c2c(=O)n1Cc1ccco1 | 12.2 |
| O=C(N/N=C/c1cccnc1)c1cccc(NC(=O)c2ccc(Cl)cc2)c1 | 18.9 |
| Cc1cc(C(=O)COc2ccc(C#N)cc2)c(C)n1-c1ccc2c(c1)OCO2 | 6.74 |
| Cc1cccc(C(=O)N/N=C/c2ccc3c(c2)OCO3)n1 | -3.51 |
| Cc1cc[n+](-c2[nH]c(=O)sc2/C=N/N=C(\[O-])c2ccncc2)cc1C | 10.4 |
| Cc1cc(C)cc(CC(CC(=O)Nc2ccc(Cl)cc2)C(=O)O)c1 (centres unmarked) | 11.5 |

| SMILES | hERG current change (%, negative = inhibition) at 1uM [%] |
| --- | --- |
| O=C(NCC1CCCO1)c1cc2c([nH]c3ccccc32)c(-c2cccc(Cl)c2)n1 (centres unmarked) | -3.28 |
| CCC(C)NC(=O)Cn1nc(C(F)(F)F)c2c1CCC2 (centres unmarked) | 7.51 |
| CCN(CC)S(=O)(=O)c1ccc(C(=O)O)cc1 | 18.8 |
| CCc1ccc2[nH]c(=O)c(CN(CCN3CCOCC3)C(=O)Nc3ccccc3F)cc2c1 | -7.22 |
| O=C(Nc1ccc(N2CCN(C(=O)c3cccs3)CC2)cc1)c1ccc(F)cc1 | 10.3 |
| CC(C)c1c(CN(C)C(C)Cc2ccccc2)n(C)n(-c2ccccc2)c1=O (centres unmarked) | 5.6 |
| CC(Oc1cccc(Cl)c1)C(=O)NCCCCc1ccccc1 (centres unmarked) | 11.3 |
| CN(C)/C=N/c1sc2c(c1C#N)CCC2 | 6.5 |
| COc1cc(C(=S)N2CCCC2)ccc1O | 14.1 |
| OCc1cccc[n+]1Cc1ccccc1.[Cl-] | 13 |
| CSc1nsc(SC)c1C(=O)Nc1ccc(C(C)(C)C)cc1 | 9.74 |
| Cc1ccc(S(=O)(=O)N(C)Cc2nc(-c3ccncc3)no2)cc1 | -2.19 |
| Cc1cccc(C(C)n2nnc3ccccc32)c1O (centres unmarked) | 11.7 |
| CC1CCN(S(=O)(=O)c2ccc3c(ccn3CC(=O)O)c2)CC1 | 9.88 |
| Cc1nn(C(C)C(=O)NC2CCCCC2)c(=O)c2nn(-c3ccccc3)c(C)c12 (centres unmarked) | 12.2 |
| CC(=O)Nc1ccc(NC(=O)[C@@H](NC(=O)c2cccc(C)c2)C(C)C)cc1 | 14.4 |
| O=C(NC1c2ccccc2-c2ccccc21)c1ccco1 | 8.22 |
| COc1ccc(CN(C)Cc2c(O)ccc3cc(Br)ccc23)cc1OC | 1.69 |
| O=c1[nH]c(O)c(C=NC2CCN(Cc3ccccc3)CC2)c(=O)[nH]1 | -11.1 |
| Nc1c(C(=O)NCCN2CCOCC2)c2nc3ccccc3nc2n1-c1cccc(F)c1 | -0.179 |
| CCNCc1nc2cc(OC)c(OC)cc2c(=O)[nH]1 | 0.317 |
| COc1cccc(NC(=O)N2CCCC2C(=O)NCc2ccccc2)c1 (centres unmarked) | 15.7 |
| O=C(O)c1n[nH]c2c1CCCCC2 | -5.65 |

| SMILES | hERG current change (%, negative = inhibition) at 1uM [%] |
| --- | --- |
| CCOC(=O)CNC(=O)CSc1nc(NCc2ccccc2)nc(N(C)C)n1 | 3.13 |
| Cl.c1ccc2c(c1)nc1n2CCN1CCN1CCCC1 | 18.3 |
| O=C(O)CSc1cc(C(=O)c2ccccc2O)cn2c(=O)c3c(-c4ccccc4)csc3nc12 | -6.74 |
| CCOC(=O)c1c(N)sc(C(=O)N(C)C)c1C | 11.9 |
| NC(=O)c1cccnc1Oc1cccc(Cl)c1 | 10.1 |
| Cc1cccc(-c2nc(CS(=O)CC(=O)NC3CCCC(C)C3C)c(C)o2)c1 (centres unmarked) | 14 |
| S=c1[nH]nc(COc2ccc(Cl)cc2Cl)n1-c1ccccc1 | 13.9 |
| C/C=C/n1ccnc1CC(O)(c1ccccc1)c1ccc(C)cc1 (centres unmarked) | -7.16 |
| Cc1ccc(CN(CC(=O)NC2CCCC2)C(=O)CSc2nnc(COc3ccccc3)o2)cc1 | 8.12 |
| CN(c1ccc(C(=O)NCc2ccc3c(c2)OCO3)cc1)S(=O)(=O)c1ccccc1 | 14.2 |
| CCCCN(CCCC)S(=O)(=O)c1c(C)[nH]c(=O)[nH]c1=O | 15.8 |
| O=C(c1cc2c(s1)CCCC2)N1CCN(S(=O)(=O)c2ccccc2)CC1 | 1.08 |
| Oc1c(C(c2ccc(Cl)cc2)N2CCCC2)cc(Cl)c2cccnc12 (centres unmarked) | 10.8 |
| CCN(C(=O)CSc1n[nH]c(-c2ccccc2)n1)c1c(N)n(Cc2ccccc2)c(=O)[nH]c1=O | 12.1 |
| COc1ccc2c(ccc[n+]2CC(=O)c2ccc(C)cc2)c1.[Br-] | 8.14 |
| O=C(N/C(=C/c1ccccc1)C(=O)N1CCCCC1)c1ccco1 | 19.1 |
| COc1ccc2nc(NC(=O)CSc3n[nH]c(N)n3)sc2c1 | 19.6 |
| COc1ccc(/C=C2\Sc3ccc(C(=O)NCCCN4CCCC4)cc3N(C)C2=O)cc1OC | -4.85 |
| COc1ccc(NC(=O)CN2CCOCC2)cc1S(=O)(=O)N1CCCCC1 | 5.95 |
| Cc1cc(C(=O)NC2CC(C)(C)Cc3c2cnn3-c2ccccc2)n(C)n1 (centres unmarked) | -3.01 |
| CC(C)(C)NC(=O)c1cccc(NC(=O)c2ccc(NC(=O)c3ccco3)cc2)c1 | -1.66 |
| COc1ccc(CCC(=O)NCC(c2ccco2)N2CCc3ccccc32)cc1 (centres unmarked) | -4.07 |
| COc1cccc(-c2nnn(CC(=O)O)n2)c1 | 11 |

| SMILES | hERG current change (%, negative = inhibition) at 1uM [%] |
| --- | --- |
| Cc1ccc(-c2nc(NCc3ccco3)n(C(=O)c3ccco3)n2)cc1 | 9.27 |
| COCCNC(=O)c1ccc(C2SCC(=O)N2CCc2ccccc2)cc1 (centres unmarked) | 10.6 |
| CC(OC(=O)c1ccco1)C(=O)NCc1cccs1 (centres unmarked) | 12.4 |
| CCN(CC)CCn1c(=N)n(CC(O)COc2ccccc2)c2ccccc21.Cl (centres unmarked) | -20.5 |
| CC(OC(=O)c1cnccn1)C(=O)c1ccccc1 (centres unmarked) | 5.25 |
| COc1cc(-c2nc(S(=O)(=O)c3ccccc3)c(N3CCOCC3)o2)cc(OC)c1OC | -8.07 |
| N#C/C(=C\c1cc(Cl)ccc1O)C(=O)NC1CCCCC1 | -5.41 |
| CCN(CC)S(=O)(=O)c1cccc2c(N(C)C)cccc12 | -16.1 |
| Cc1ccc(OC2=NS(=O)(=O)c3ccccc32)cc1 | 13.5 |
| Nc1c2c(nc3c1CCC3)CCCC2 | 7.93 |
| Cc1ccc(CCNC(=O)C2=CCN(S(=O)(=O)c3ccccc3)CC2)cc1 | -1.77 |
| Cc1cc(F)ccc1NS(=O)(=O)c1cccc2nsnc12 | 7.8 |
| CC(C)Sc1cc(N2CCOCC2)nc(-c2ccc(Cl)cc2)n1 | 16.7 |
| OCCN1CCN(c2nc(N3CCCCC3)nc(N3CCCCC3)n2)CC1 | 14.4 |
| CNC(=O)c1ccsc1NC(=O)CCS(=O)(=O)c1ccc(C)cc1 | 11.3 |
| COc1ccc(C(=O)c2c[nH]c3ccccc23)cc1 | 1.39 |
| COc1ccccc1N1CCN(C(=O)CN(c2ccccc2OC)S(=O)(=O)c2ccccc2)CC1 | -2.9 |
| Cc1ncc(CN2CCCC(C(=O)Nc3ccc(-c4cccc(F)c4)cc3)C2)cn1 (centres unmarked) | -8.52 |
| COC(=O)c1sc(-c2ccc(Cl)cc2)cc1NC(=O)c1ccccc1C(=O)O | 0.336 |
| O=C(N/N=C/c1ccc(Cl)c([N+](=O)[O-])c1)C1CC1 | 7.95 |
